# The supplement of paper PMC4604168 (melanoma cell lines)
# Some of the results follow. Single values are uncertain, as repeats are few or missing.
# Legend:
# Test in all cases: cell count relative to DMSO control; melanoma cells; higher = more viable cells
# Conditions in all cases: library dose: low library concentration; 72 h
# [1] = system: WM115
# [2] = system: WM1716
# [3] = system: WM1745
# [4] = system: WM3526
# [5] = system: WM3619
# [6] = system: WM451Lu
# 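Also: cell number obtained by counting DAPI-stained nuclei in high-throughput microscope images with image analysis software, screen run in 1,536-well plates.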
Structure (SMILES),cell count [1] [%],cell count [2] [%],cell count [3] [%],cell count [4] [%],cell count [5] [%],cell count [6] [%]
"CC(C)(C)c1cnc(CSc2cnc(NC(=O)C3CCNCC3)s2)o1 + O=C(Oc1ccc([N+](=O)[O-])cc1)N1CCC(C(O)(c2ccc3c(c2)OCO3)c2ccc3c(c2)OCO3)CC1 [JZL184] (first compound 0.01 µM, partner dose 1 µM)",97.6,93.8,84.9,94.7,106,95.3
"C/C(O)=C(\C#N)C(=O)Nc1cc(Br)ccc1Br + O=C1NC(=O)/C(=C/c2ccc(-c3ccc(F)cc3O)o2)S1 [AS252424] (first compound 2 µM, partner dose 1 µM)",111,104,106,101,87.1,92.8
"OCCn1cc(-c2cnc3nnn(Cc4ccc5ncccc5c4)c3n2)cn1 + O=C(Oc1ccc([N+](=O)[O-])cc1)N1CCC(C(O)(c2ccc3c(c2)OCO3)c2ccc3c(c2)OCO3)CC1 [JZL184] (first compound 1 µM, partner dose 1 µM)",104,93.5,82.8,94.1,124,106
"O=C(Oc1ccc([N+](=O)[O-])cc1)N1CCC(C(O)(c2ccc3c(c2)OCO3)c2ccc3c(c2)OCO3)CC1 + O=c1cc(-c2cccc3c2Sc2ccccc2S3)oc(N2CCOCC2)c1 [KU55933] (first compound 1 µM, partner dose 1 µM)",106,107,104,100,91.9,111
"C[C@@H](Oc1cc(-c2cnn(C3CCNCC3)c2)cnc1N)c1c(Cl)ccc(F)c1Cl [Crizotinib] + Cc1cc(SCc2sc(-c3ccc(C(F)(F)F)c(F)c3)nc2C)ccc1OCC(=O)O [GW0742] (first compound 0.2 µM, partner dose 2 µM)",101,118,107,108,100,118
"C[C@]1(O)C[C@@H](c2nc(-c3ccc4ccc(-c5ccccc5)nc4c3)c3c(N)nccn32)C1 + N.N.[Cl][Pt][Cl] [cisplatin] (first compound 0.4 µM, partner dose 1.6 µM)",103,81,81.4,94,108,88.6
"OCc1c[nH]c2ccccc12 [Indole-3-carbinol] + C/C(O)=C(\C#N)C(=O)Nc1cc(Br)ccc1Br [LFM-A13] (first compound 0.8 µM, partner dose 2 µM)",84.3,112,95.4,102,82.3,92.4
"CC1(C)CCC(c2ccc(Cl)cc2)=C(CN2CCN(c3ccc(C(=O)NS(=O)(=O)c4ccc(N[C@H](CCN5CCOCC5)CSc5ccccc5)c(S(=O)(=O)C(F)(F)F)c4)cc3)CC2)C1 + Cc1cc(SCc2sc(-c3ccc(C(F)(F)F)c(F)c3)nc2C)ccc1OCC(=O)O [GW0742] (first compound 0.4 µM, partner dose 2 µM)",91.1,84.3,6.17,96.2,47.5,84.4
"NC(=O)Nc1cc(-c2cccc(F)c2)sc1C(=O)N[C@H]1CCCNC1 + O=C(Oc1ccc([N+](=O)[O-])cc1)N1CCC(C(O)(c2ccc3c(c2)OCO3)c2ccc3c(c2)OCO3)CC1 [JZL184] (first compound 0.02 µM, partner dose 1 µM)",98.4,96.9,103,91.6,82.6,76.7
"NCC(=O)Nc1ccc(-n2nc(C(F)(F)F)cc2-c2ccc3c(ccc4ccccc43)c2)cc1 + C/C(O)=C(\C#N)C(=O)Nc1cc(Br)ccc1Br [LFM-A13] (first compound 1 µM, partner dose 2 µM)",90.3,85.2,94.5,44.3,89,49.9
"Cc1cc(N2CCOCC2)cc2[nH]c(-c3c(NC[C@@H](O)c4cccc(Cl)c4)cc[nH]c3=O)nc12 + O=C(Oc1ccc([N+](=O)[O-])cc1)N1CCC(C(O)(c2ccc3c(c2)OCO3)c2ccc3c(c2)OCO3)CC1 [JZL184] (first compound 0.2 µM, partner dose 1 µM)",96.7,72.5,73.1,85.9,80.1,78.3
"N#CC[C@H](C1CCCC1)n1cc(-c2ncnc3[nH]ccc23)cn1 [ruxolitinib] + Cc1cc(SCc2sc(-c3ccc(C(F)(F)F)c(F)c3)nc2C)ccc1OCC(=O)O [GW0742] (first compound 1 µM, partner dose 2 µM)",105,109,100,118,91.8,108
"O=S(=O)(c1ccccc1)N(CC(F)(F)F)c1ccc(C(O)(C(F)(F)F)C(F)(F)F)cc1 + Cc1cc(SCc2sc(-c3ccc(C(F)(F)F)c(F)c3)nc2C)ccc1OCC(=O)O [GW0742] (first compound 1.4 µM, partner dose 2 µM)",93.1,101,72,87.4,140,120
"C/C(O)=C(\C#N)C(=O)Nc1cc(Br)ccc1Br + Oc1nc(-c2ccc(C(F)(F)F)cc2)nc2c1CSCC2 [XAV939] (first compound 2 µM, partner dose 2 µM)",93.1,56.4,83.2,104,98.7,65.8
"N#Cc1c(O)c2c(-c3ccc(-c4ccccc4O)cc3)csc2[nH]c1=O + O=C(Oc1ccc([N+](=O)[O-])cc1)N1CCC(C(O)(c2ccc3c(c2)OCO3)c2ccc3c(c2)OCO3)CC1 [JZL184] (first compound 2 µM, partner dose 1 µM)",119,91.7,112,91.7,103,92
"CC[C@]1(O)C[C@H]2CN(CCc3c([nH]c4ccccc34)[C@@](C(=O)OC)(c3cc4c(cc3OC)N(C=O)[C@H]3[C@@](O)(C(=O)OC)[C@H](OC(C)=O)[C@]5(CC)C=CCN6CC[C@]43[C@@H]65)C2)C1 [vincristine] + C[As](C)SC[C@H](NC(=O)CC[C@H](N)C(=O)O)C(=O)NCC(=O)O [Darinaparsin] (first compound 0.0001 µM, partner dose 0.4 µM)",44.8,45.2,84,54.8,34.7,49.6
"N#CC[C@H](C1CCCC1)n1cc(-c2ncnc3[nH]ccc23)cn1 [ruxolitinib] + O=C(Oc1ccc([N+](=O)[O-])cc1)N1CCC(C(O)(c2ccc3c(c2)OCO3)c2ccc3c(c2)OCO3)CC1 [JZL184] (first compound 1 µM, partner dose 1 µM)",111,129,90.4,111,99.7,114
"C[C@@H](N)c1ccc(C(=O)Nc2ccnc3[nH]ccc23)cc1 + Cn1cc(C2=C(c3cn(C4CCN(Cc5ccccn5)CC4)c4ccccc34)C(=O)NC2=O)c2ccccc21 [Enzastaurin] (first compound 0.4 µM, partner dose 0.8 µM)",110,81.2,89,128,99.1,95.8
"Cn1cncc1[C@@](N)(c1ccc(Cl)cc1)c1ccc2c(c1)c(-c1cccc(Cl)c1)cc(=O)n2C [tipifarnib] + C/C(O)=C(\C#N)C(=O)Nc1cc(Br)ccc1Br [LFM-A13] (first compound 0.01 µM, partner dose 2 µM)",95.4,88,111,94.8,65.4,95.6
"Cc1cc(SCc2sc(-c3ccc(C(F)(F)F)c(F)c3)nc2C)ccc1OCC(=O)O + COc1cc2ncnc(Nc3ccc(Oc4ccccc4)cc3)c2cc1OC [SrcI1] (first compound 2 µM, partner dose 2 µM)",99.7,122,85.1,137,96.1,98.3
"CC1(C)CCC(c2ccc(Cl)cc2)=C(CN2CCN(c3ccc(C(=O)NS(=O)(=O)c4ccc(N[C@H](CCN5CCOCC5)CSc5ccccc5)c(S(=O)(=O)C(F)(F)F)c4)cc3)CC2)C1 + C/C(O)=C(\C#N)C(=O)Nc1cc(Br)ccc1Br [LFM-A13] (first compound 0.4 µM, partner dose 2 µM)",72,71.4,8.39,71.9,86.1,69.3
"C=C(c1ccc(C(=O)O)cc1)c1cc2c(cc1C)C(C)(C)CCC2(C)C [Bexarotene] + O=C(Oc1ccc([N+](=O)[O-])cc1)N1CCC(C(O)(c2ccc3c(c2)OCO3)c2ccc3c(c2)OCO3)CC1 [JZL184] (first compound 2 µM, partner dose 1 µM)",98.6,71.4,102,72.9,97.6,89.8
"O=C(O)[C@@H]1[O][Sb](=[O])([O][Sb]2(=[O])[O][C@H]([C@H](O)CO)[C@H](O)[C@H](C(=O)O)[O]2)[O][C@H]([C@H](O)CO)[C@@H]1O (some centres undefined) [stibogluconate] + Cc1cc(SCc2sc(-c3ccc(C(F)(F)F)c(F)c3)nc2C)ccc1OCC(=O)O [GW0742] (first compound 2 µM, partner dose 2 µM)",90.9,106,127,101,111,103
"NC(=O)c1ccc(N(C(N)=O)c2c(F)cccc2F)nc1-c1ccc(F)cc1F + O=C(Oc1ccc([N+](=O)[O-])cc1)N1CCC(C(O)(c2ccc3c(c2)OCO3)c2ccc3c(c2)OCO3)CC1 [JZL184] (first compound 0.4 µM, partner dose 1 µM)",83.8,104,89.7,81.3,106,96.2
